These are yes or no findings as the source states them, for the method shown. In cells and extracts the contact can be indirect. Some results given as binding are weak or reduced against the parent protein; the word gives no strength. Tags and fused reporters may be left off the sequences shown.
How the values were obtained:
[1] = target: T1, HA-GI^N (GI N-terminal polypeptide, aa 1-858) (Arabidopsis) (UniProt Q9SQI2); assay: co-IP; HA-tagged GI FL, GI^N or GI^C co-infiltrated with GFP-tagged ZTL WT or ZTL^C82A into N. benthamiana leaves; IP with HA antibody (3F10), blots with anti-HA and anti-GFP
T1 sequence: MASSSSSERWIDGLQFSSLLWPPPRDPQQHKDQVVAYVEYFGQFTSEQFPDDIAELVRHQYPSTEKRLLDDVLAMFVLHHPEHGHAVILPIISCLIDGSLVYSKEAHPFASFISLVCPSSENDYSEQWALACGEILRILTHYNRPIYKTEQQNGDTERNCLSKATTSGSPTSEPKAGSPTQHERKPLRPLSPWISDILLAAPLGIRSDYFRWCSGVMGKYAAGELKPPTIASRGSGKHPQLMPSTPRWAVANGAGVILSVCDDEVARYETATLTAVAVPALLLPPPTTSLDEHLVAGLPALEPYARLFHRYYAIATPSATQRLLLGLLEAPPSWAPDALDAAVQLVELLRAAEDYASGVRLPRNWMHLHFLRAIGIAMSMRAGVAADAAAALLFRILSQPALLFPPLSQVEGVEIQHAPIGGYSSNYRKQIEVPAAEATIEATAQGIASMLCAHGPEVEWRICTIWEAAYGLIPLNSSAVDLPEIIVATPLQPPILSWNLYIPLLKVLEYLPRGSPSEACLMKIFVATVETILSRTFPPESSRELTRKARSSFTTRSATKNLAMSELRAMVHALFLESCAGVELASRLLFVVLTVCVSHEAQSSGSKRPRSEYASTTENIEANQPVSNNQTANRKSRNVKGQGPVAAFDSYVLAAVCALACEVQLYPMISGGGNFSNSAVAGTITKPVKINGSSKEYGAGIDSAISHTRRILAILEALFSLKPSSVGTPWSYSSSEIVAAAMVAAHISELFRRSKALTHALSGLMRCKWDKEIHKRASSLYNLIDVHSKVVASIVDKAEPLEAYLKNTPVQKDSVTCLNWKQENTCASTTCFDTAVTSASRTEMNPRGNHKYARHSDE

[2] = target: T2, HA-tagged GI full length (FL) (Arabidopsis) (UniProt Q9SQI2); assay: as above
T2 sequence: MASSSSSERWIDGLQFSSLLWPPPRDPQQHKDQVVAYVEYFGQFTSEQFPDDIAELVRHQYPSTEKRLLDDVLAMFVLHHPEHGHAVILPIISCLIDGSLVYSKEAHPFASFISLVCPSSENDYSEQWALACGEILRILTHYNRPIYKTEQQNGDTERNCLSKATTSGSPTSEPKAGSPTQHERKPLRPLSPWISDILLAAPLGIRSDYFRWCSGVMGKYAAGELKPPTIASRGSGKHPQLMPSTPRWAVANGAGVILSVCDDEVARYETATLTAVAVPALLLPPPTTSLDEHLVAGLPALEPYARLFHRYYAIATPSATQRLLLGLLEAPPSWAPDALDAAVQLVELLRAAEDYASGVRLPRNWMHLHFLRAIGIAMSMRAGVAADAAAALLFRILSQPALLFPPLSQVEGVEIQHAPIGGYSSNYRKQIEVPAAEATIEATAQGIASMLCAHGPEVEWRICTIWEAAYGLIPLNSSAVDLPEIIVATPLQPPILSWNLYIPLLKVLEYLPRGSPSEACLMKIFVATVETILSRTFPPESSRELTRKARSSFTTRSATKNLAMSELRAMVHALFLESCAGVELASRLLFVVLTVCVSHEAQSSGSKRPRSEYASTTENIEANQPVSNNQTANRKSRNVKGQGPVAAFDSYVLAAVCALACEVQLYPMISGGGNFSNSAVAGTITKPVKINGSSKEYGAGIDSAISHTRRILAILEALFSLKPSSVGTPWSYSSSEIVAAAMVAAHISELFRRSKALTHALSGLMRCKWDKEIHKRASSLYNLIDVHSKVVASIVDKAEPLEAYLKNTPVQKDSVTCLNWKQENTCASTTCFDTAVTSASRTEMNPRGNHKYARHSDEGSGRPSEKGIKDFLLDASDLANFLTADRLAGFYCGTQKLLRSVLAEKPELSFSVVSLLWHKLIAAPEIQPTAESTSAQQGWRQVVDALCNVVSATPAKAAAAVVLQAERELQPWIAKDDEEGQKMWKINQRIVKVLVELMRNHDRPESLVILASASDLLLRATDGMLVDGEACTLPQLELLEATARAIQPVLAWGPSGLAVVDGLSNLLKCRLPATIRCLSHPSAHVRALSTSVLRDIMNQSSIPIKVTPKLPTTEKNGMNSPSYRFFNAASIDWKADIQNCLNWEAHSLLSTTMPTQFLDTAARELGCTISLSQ

binding [1]: binds weakly | binding [2]: binds weakly
B1: GFP-tagged ZTL^C82A (protein, UniProt Q94BT6 1-609)
chain: MEWDSGSDLSADDASSLADDEEGGLFPGGGPIPYPVGNLLHTAPCGFVVTDAVEPDQPIIYVNTVFEMVTGYRAEEVLGGNARFLQCRGPFAKRRHPLVDSMVVSEIRKCIDEGIEFQGELLNFRKDGSPLMNRLRLTPIYGDDDTITHIIGIQFFIETDIDLGPVLGSSTKEKSIDGIYSALAAGERNVSRGMCGLFQLSDEVVSMKILSRLTPRDVASVSSVCRRLYVLTKNEDLWRRVCQNAWGSETTRVLETVPGAKRLGWGRLARELTTLEAAAWRKLSVGGSVEPSRCNFSACAVGNRVVLFGGEGVNMQPMNDTFVLDLNSDYPEWQHVKVSSPPPGRWGHTLTCVNGSNLVVFGGCGQQGLLNDVFVLNLDAKPPTWREISGLAPPLPRSWHSSCTLDGTKLIVSGGCADSGVLLSDTFLLDLSIEKPVWREIPAAWTPPSRLGHTLSVYGGRKILMFGGLAKSGPLKFRSSDVFTMDLSEEEPCWRCVTGSGMPGAGNPGGVAPPPRLDHVAVNLPGGRILIFGGSVAGLHSASQLYLLDPTEDKPTWRILNIPGRPPRFAWGHGTCVVGGTRAIVLGGQTGEEWMLSELHELSLASYLT

From paper PMC5431898
